From the supplement of paper PMC8728848
The other results are listed elsewhere or left out.

Assays:
Experiment in all cases: glycan array binding signal (z-score within array); higher = stronger binding
Conditions in all cases: glycan notation: IUPAC condensed, linker removed
[1] = biological target: Neu5Ac(a2-3)Gal(b1-3)GalNAc(b1-3)Gal(a1-4)Gal(b1-4)Glc
Method in brief: (§1)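 The Consortium for Functional Glycomics database supplied 3228 glycan arrays, of which those lacking an available protein sequence were dropped. The binding signal, a within-array Z-score, was averaged across arrays of the same protein sequence and across linkers. Negative scores can be read as non-binding.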

[2] = biological target: Neu5Ac(a2-3)Gal(b1-3)GalNAc(b1-4)[Neu5Ac(a2-3)]Gal(b1-4)Glc
Method in brief: as §1

[3] = biological target: Neu5Ac(a2-3)Gal(b1-3)GalNAc6S
Method in brief: as §1

[4] = biological target: Neu5Ac(a2-3)Gal(b1-3)GlcNAc
Method in brief: as §1

[5] = biological target: Neu5Ac(a2-3)Gal(b1-3)GlcNAc(b1-3)Gal(b1-4)GlcNAc
Method in brief: as §1

[6] = biological target: Neu5Ac(a2-3)Gal(b1-3)GlcNAc6S
Method in brief: as §1

[7] = biological target: Neu5Ac(a2-3)Gal(b1-3)[Fuc(a1-4)]GlcNAc
Method in brief: as §1

[8] = biological target: Neu5Ac(a2-3)Gal(b1-3)[Fuc(a1-4)]GlcNAc(b1-3)Gal(b1-4)[Fuc(a1-3)]GlcNAc
Method in brief: as §1

[9] = biological target: Neu5Ac(a2-3)Gal(b1-3)[Neu5Ac(a2-3)Gal(b1-4)]GlcNAc
Method in brief: as §1

[10] = biological target: Neu5Ac(a2-3)Gal(b1-3)[Neu5Ac(a2-6)]GalNAc
Method in brief: as §1

Neu5Ac(a2-3)Gal(b1-4)Glc = biological target: Neu5Ac(a2-3)Gal(b1-4)Glc
Method in brief: as §1

[11] = biological target: Neu5Ac(a2-3)Gal(b1-4)GlcNAc
Method in brief: as §1

[12] = biological target: Neu5Ac(a2-3)Gal(b1-4)GlcNAc(b1-3)Gal(b1-4)GlcNAc
Method in brief: as §1

[13] = biological target: Neu5Ac(a2-3)Gal(b1-4)GlcNAc(b1-3)Gal(b1-4)GlcNAc(b1-3)Gal(b1-4)GlcNAc
Method in brief: as §1

[14] = biological target: Neu5Ac(a2-3)Gal(b1-4)GlcNAc(b1-3)Gal(b1-4)[Fuc(a1-3)]GlcNAc
Method in brief: as §1

[15] = biological target: Neu5Ac(a2-3)Gal(b1-4)GlcNAc6S
Method in brief: as §1

[16] = biological target: Neu5Ac(a2-3)Gal(b1-4)[Fuc(a1-3)]GlcNAc
Method in brief: as §1

[17] = biological target: Neu5Ac(a2-3)Gal(b1-4)[Fuc(a1-3)]GlcNAc(b1-3)Gal
Method in brief: as §1

[18] = biological target: Neu5Ac(a2-3)Gal(b1-4)[Fuc(a1-3)]GlcNAc(b1-3)Gal(b1-4)GlcNAc
Method in brief: as §1

[19] = biological target: Neu5Ac(a2-3)Gal(b1-4)[Fuc(a1-3)]GlcNAc(b1-3)Gal(b1-4)[Fuc(a1-3)]GlcNAc(b1-3)Gal(b1-4)[Fuc(a1-3)]GlcNAc
Method in brief: as §1

[20] = biological target: Neu5Ac(a2-3)Gal(b1-4)[Fuc(a1-3)]GlcNAc6S
Method in brief: as §1

[21] = biological target: Neu5Ac(a2-3)Gal6S(b1-4)GlcNAc
Method in brief: as §1

[22] = biological target: Neu5Ac(a2-3)Gal6S(b1-4)[Fuc(a1-3)]GlcNAc
Method in brief: as §1

Neu5Ac(a2-3)GalNAc = biological target: Neu5Ac(a2-3)GalNAc
Method in brief: as §1

[23] = biological target: Neu5Ac(a2-3)GalNAc(b1-4)GlcNAc
Method in brief: as §1

[24] = biological target: Neu5Ac(a2-3)[GalNAc(b1-4)]Gal(b1-4)Glc
Method in brief: as §1

[25] = biological target: Neu5Ac(a2-3)[GalNAc(b1-4)]Gal(b1-4)GlcNAc
Method in brief: as §1

[26] = biological target: Neu5Ac(a2-3)[Neu5Ac(a2-6)]GalNAc
Method in brief: as §1

[27] = biological target: Neu5Ac(a2-6)Gal(b1-4)GlcNAc
Method in brief: as §1

[28] = biological target: Neu5Ac(a2-6)Gal(b1-4)GlcNAc(b1-2)Man(a1-3)[Neu5Ac(a2-6)Gal(b1-4)GlcNAc(b1-2)Man(a1-6)]Man(b1-4)GlcNAc(b1-4)GlcNAc
Method in brief: as §1

[29] = biological target: Neu5Ac(a2-6)Gal(b1-4)GlcNAc(b1-3)Gal(b1-4)GlcNAc
Method in brief: as §1

[30] = biological target: Neu5Ac(a2-6)Gal(b1-4)GlcNAc(b1-3)Gal(b1-4)[Fuc(a1-3)]GlcNAc(b1-3)Gal(b1-4)[Fuc(a1-3)]GlcNAc
Method in brief: as §1

[31] = biological target: Neu5Ac(a2-6)Gal(b1-4)GlcNAc6S
Method in brief: as §1

Neu5Ac(a2-6)GalNAc = biological target: Neu5Ac(a2-6)GalNAc
Method in brief: as §1

[32] = biological target: Neu5Ac(a2-6)GalNAc(b1-4)GlcNAc
Method in brief: as §1

Neu5Ac(a2-8)Neu5Ac = biological target: Neu5Ac(a2-8)Neu5Ac
Method in brief: as §1

[33] = biological target: Neu5Ac(a2-8)Neu5Ac(a2-3)Gal(b1-4)Glc
Method in brief: as §1

[34] = biological target: Neu5Ac(a2-8)Neu5Ac(a2-3)[GalNAc(b1-4)]Gal(b1-4)Glc
Method in brief: as §1

[35] = biological target: Neu5Ac(a2-8)Neu5Ac(a2-8)Neu5Ac
Method in brief: as §1

[36] = biological target: Neu5Ac(a2-8)Neu5Ac(a2-8)Neu5Ac(a2-3)Gal(b1-4)Glc
Method in brief: as §1

[37] = biological target: Neu5Ac(a2-8)Neu5Ac(a2-8)Neu5Ac(a2-3)[GalNAc(b1-4)]Gal(b1-4)Glc
Method in brief: as §1

[38] = biological target: Neu5Ac(a2-8)Neu5Ac(a2-8)Neu5Ac(a2-8)Neu5Ac(a2-3)[GalNAc(b1-4)]Gal(b1-4)Glc
Method in brief: as §1

[39] = biological target: Neu5Ac9Ac(a2-6)Gal(b1-4)GlcNAc
Method in brief: as §1

[40] = biological target: Neu5Gc(a2-3)Gal(b1-3)GlcNAc
Method in brief: as §1

[41] = biological target: Neu5Gc(a2-3)Gal(b1-3)[Fuc(a1-4)]GlcNAc
Method in brief: as §1

Neu5Gc(a2-3)Gal(b1-4)Glc = biological target: Neu5Gc(a2-3)Gal(b1-4)Glc
Method in brief: as §1

[42] = biological target: Neu5Gc(a2-3)Gal(b1-4)GlcNAc
Method in brief: as §1

[43] = biological target: Neu5Gc(a2-3)Gal(b1-4)[Fuc(a1-4)]GlcNAc
Method in brief: as §1

[44] = biological target: Neu5Gc(a2-6)Gal(b1-4)GlcNAc
Method in brief: as §1

Neu5Gc(a2-6)GalNAc = biological target: Neu5Gc(a2-6)GalNAc
Method in brief: as §1

B1: EcCDA (Encephalitazoon cuniculi), Q8SU65 (protein)
chain: MLLCLLYFTSSWCSGSDVPDVCTNSGMIAINFVDGPVRGVTDRILNTLDELGVKATFSFTVNQKAVGNVGQLYRRAVEEGHNVALRVDPSMDEGYQCLSQDALENNVDREIDTIDGLSGTEIRYAAVPICNGQVNSEMYNILTERGVLPVGYTFCPYDYDDPVGEFESMIEGSDPKHHSFIILMHDGQEADTSRLENMVKIGKDKGYRFVNMDECLQGYKGAPGDPELSLRGKGVESIGKGFLPFFLMMLVRLL
[1]
  glycan array binding signal (z-score): -0.476
[2]
  glycan array binding signal (z-score): 0.074
[3]
  glycan array binding signal (z-score): -0.267
[4]
  glycan array binding signal (z-score): -0.425
[5]
  glycan array binding signal (z-score): -0.306
[6]
  glycan array binding signal (z-score): 0.018
[7]
  glycan array binding signal (z-score): -0.456
[8]
  glycan array binding signal (z-score): -0.421
[9]
  glycan array binding signal (z-score): -0.182
[10]
  glycan array binding signal (z-score): -0.318
Neu5Ac(a2-3)Gal(b1-4)Glc
  glycan array binding signal (z-score): -0.322
[11]
  glycan array binding signal (z-score): -0.309
[12]
  glycan array binding signal (z-score): -0.328
[13]
  glycan array binding signal (z-score): 0.109
[14]
  glycan array binding signal (z-score): -0.234
[15]
  glycan array binding signal (z-score): -0.284
[16]
  glycan array binding signal (z-score): -0.337
[17]
  glycan array binding signal (z-score): -0.446
[18]
  glycan array binding signal (z-score): -0.356
[19]
  glycan array binding signal (z-score): -0.308
[20]
  glycan array binding signal (z-score): -0.353
[21]
  glycan array binding signal (z-score): 1.02
[22]
  glycan array binding signal (z-score): -0.462
Neu5Ac(a2-3)GalNAc
  glycan array binding signal (z-score): 0.071
[23]
  glycan array binding signal (z-score): 0.134
[24]
  glycan array binding signal (z-score): -0.498
[25]
  glycan array binding signal (z-score): 0.219
[26]
  glycan array binding signal (z-score): -0.301
[27]
  glycan array binding signal (z-score): -0.235
[28]
  glycan array binding signal (z-score): -0.02
[29]
  glycan array binding signal (z-score): -0.269
[30]
  glycan array binding signal (z-score): -0.36
[31]
  glycan array binding signal (z-score): -0.394
Neu5Ac(a2-6)GalNAc
  glycan array binding signal (z-score): -0.425
[32]
  glycan array binding signal (z-score): -0.269
Neu5Ac(a2-8)Neu5Ac
  glycan array binding signal (z-score): -0.391
[33]
  glycan array binding signal (z-score): -0.422
[34]
  glycan array binding signal (z-score): -0.205
[35]
  glycan array binding signal (z-score): -0.328
[36]
  glycan array binding signal (z-score): -0.326
[37]
  glycan array binding signal (z-score): -0.475
[38]
  glycan array binding signal (z-score): -0.315
[39]
  glycan array binding signal (z-score): 4.58
[40]
  glycan array binding signal (z-score): -0.33
[41]
  glycan array binding signal (z-score): -0.384
Neu5Gc(a2-3)Gal(b1-4)Glc
  glycan array binding signal (z-score): -0.262
[42]
  glycan array binding signal (z-score): -0.323
[43]
  glycan array binding signal (z-score): -0.242
[44]
  glycan array binding signal (z-score): -0.403
Neu5Gc(a2-6)GalNAc
  glycan array binding signal (z-score): -0.188
